Reference: publication PMC4336329 (PLoS ONE, 2015)
The campaign covered roughly 310,000 compounds. About 2,200 (0.71%) showed an effect of 50% or more. Effects have a minus sign here. Some of the results follow.

molecular target: human ether-à-go-go-related gene (hERG) potassium channel (human, UniProt Q12809); assay: primary screen, population patch clamp on CHO cells stably expressing hERG
Sequence (Q12809 whole entry, looked up): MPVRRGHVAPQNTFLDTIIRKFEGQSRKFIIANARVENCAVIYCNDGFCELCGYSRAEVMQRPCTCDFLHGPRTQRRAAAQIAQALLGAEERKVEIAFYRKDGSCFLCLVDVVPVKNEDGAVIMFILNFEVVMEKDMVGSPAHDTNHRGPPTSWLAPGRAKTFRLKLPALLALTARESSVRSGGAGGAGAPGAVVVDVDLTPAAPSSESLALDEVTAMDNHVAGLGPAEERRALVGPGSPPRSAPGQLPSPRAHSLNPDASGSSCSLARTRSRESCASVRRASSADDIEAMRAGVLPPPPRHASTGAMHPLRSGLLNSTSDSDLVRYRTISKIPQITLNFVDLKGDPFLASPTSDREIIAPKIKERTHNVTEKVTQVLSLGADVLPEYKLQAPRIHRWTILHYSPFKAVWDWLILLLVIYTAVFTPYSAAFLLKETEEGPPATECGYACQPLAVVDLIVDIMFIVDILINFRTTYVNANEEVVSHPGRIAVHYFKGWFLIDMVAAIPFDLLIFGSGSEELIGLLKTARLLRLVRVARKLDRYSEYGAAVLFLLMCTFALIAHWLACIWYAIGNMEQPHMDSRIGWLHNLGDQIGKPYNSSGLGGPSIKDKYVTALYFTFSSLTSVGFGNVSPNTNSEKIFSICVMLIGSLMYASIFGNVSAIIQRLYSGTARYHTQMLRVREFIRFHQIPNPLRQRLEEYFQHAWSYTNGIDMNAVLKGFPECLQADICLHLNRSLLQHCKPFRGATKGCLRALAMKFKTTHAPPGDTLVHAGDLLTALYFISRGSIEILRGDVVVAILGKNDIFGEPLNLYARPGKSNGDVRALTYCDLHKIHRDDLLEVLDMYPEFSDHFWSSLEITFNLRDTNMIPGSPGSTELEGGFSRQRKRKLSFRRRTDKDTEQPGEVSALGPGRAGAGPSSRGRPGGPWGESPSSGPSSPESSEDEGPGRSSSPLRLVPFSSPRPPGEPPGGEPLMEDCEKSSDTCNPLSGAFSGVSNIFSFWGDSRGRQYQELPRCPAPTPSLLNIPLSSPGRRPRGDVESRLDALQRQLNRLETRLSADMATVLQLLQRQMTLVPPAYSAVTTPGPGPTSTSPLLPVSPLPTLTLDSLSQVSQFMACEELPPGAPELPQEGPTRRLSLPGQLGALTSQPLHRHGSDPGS

Row | Compound | hERG current change (%, negative = inhibition) at 1uM [%]
1 | CCN1C(=O)[C@H]2[C@@H](c3ccc(C)cc3)N3C(=O)N(c4ccc(C(F)(F)F)cc4)C(=O)[C@@]3(Cc3ccccc3)[C@H]2C1=O | 12.6
2 | COc1ccccc1C(=O)NC(C)C(c1cccs1)N1CCOCC1 (stereo not shown) | 12
3 | Cc1ccc(-n2c(=O)c3ccccc3n(CC(=O)NCc3ccco3)c2=O)cc1 | 10.8
4 | CCOc1ccccc1NC(=O)c1ccc2nc[nH]c2c1 | 17.3
5 | COc1c(Cl)cc(Cl)cc1/C=N/NC(=O)c1nnn(-c2nonc2N)c1CN1CCC(C)CC1 | 19.9
6 | CC(=O)Nc1ccc(S(=O)(=O)Nc2cccc3[nH]ncc23)cc1 | 8.97
7 | CCOC(=O)c1ccc(NC(=O)CN2CCN(Cc3ccccc3)CC2)cc1 | -11.7
8 | COc1ccc(/C=C(\C#N)C(=O)OCC(=O)Nc2c(C)cccc2C(C)C)cc1 | 12.9
9 | COc1ccc(COc2cc(-c3cccc(OC)c3)nc3ccc(NC(=O)C(C)C)cc23)cc1 | 3.34
10 | COC(=O)c1c(NC(=O)CCl)sc(C(=O)N2CCOCC2)c1C | 8.51
11 | O=C1/C(=C/c2ccc(Br)cc2)Oc2cc(O)ccc21 | 15.3
12 | CCN(CC)c1ccc(C2CC(=O)NC3=C2C(=O)CC(C)(C)C3)cc1 (stereo not shown) | 8.94
13 | C=CCn1c(N)cc(=O)nc1SCC(=O)Nc1ccccc1 | 10.4
14 | Cc1c(Cl)cccc1NC(=O)C1C2C=CC(C2)C1C(=O)O (stereo not shown) | 11.4
15 | CSc1ccc(C(=O)C2CCCN(C(=O)c3cccnc3SC)C2)cc1 (stereo not shown) | 10.1
16 | CCN(CC)c1ccc(C=C2C(=O)OC3(CCCC3)OC2=O)cc1 | 3.3
17 | Cc1ccc(NC(=O)C2CCCN(c3ncnc4c3nc3n4CCCCC3)C2)cc1Cl (stereo not shown) | 3.48
18 | CC(C)CCNC(=O)NC(=O)CN1C(=O)NC2(CCCCC2)C1=O | -0.428
19 | CCNC(=O)c1c(N)sc2c1CCCCC2 | 9.61
20 | CCOC(=O)C1(C/C(C)=N/NC(N)=O)CC(C)(C)OC1=O (stereo not shown) | 25.1
21 | N/C(=N\OC(=O)c1ccco1)c1ccccn1 | 9.05
22 | COCCNC(=O)C(c1ccc(F)cc1)N(Cc1ccccc1)C(=O)CCC(=O)Nc1nccs1 (stereo not shown) | 13.9

Row | Compound | hERG current change (%, negative = inhibition) at 1uM [%]
23 | O=C(CSc1ccc(Cl)cc1)Nc1ncccn1 | 1.63
24 | COc1ccc(S(=O)(=O)N2CCCC2C(=O)Nc2ccc(C)cc2)cc1 (stereo not shown) | 9.13
25 | C/C(=N\NC(=O)CNc1cccc(C)c1)c1ccc(Br)s1 | 6.52
26 | O=C(c1ccc(CNS(=O)(=O)c2ccccc2)cc1)N1CCN(Cc2ccccc2)CC1 | -4.51
27 | O=S(=O)(c1ccc2ncn(O)c2c1)N1CCOCC1 | 13.4
28 | Cc1ccc(S(=O)(=O)C2(S(=O)(=O)c3ccc(C)cc3)CC2)cc1 | 5.31
29 | COc1ccc(C)cc1S(=O)(=O)N1CCN(C(=O)c2ncoc2-c2ccc(F)cc2)CC1 | 14.4
30 | CC(=O)N1c2ccc(S(=O)(=O)NCCC(=O)Nc3ccc(F)cc3C)cc2CC1C (stereo not shown) | -8.48
31 | COC(=O)C1=C(N)Oc2cc(C)n(CC3CCCO3)c(=O)c2C1c1ccccc1 (stereo not shown) | 16.9
32 | CCCOc1ccc(NC(=O)CC2C(=O)N(C)C(=S)N2Cc2ccc3c(c2)OCO3)cc1 (stereo not shown) | 11.1
33 | O=C(Nc1ccc(F)cc1)C1CCN(S(=O)(=O)c2cccc3nonc23)CC1 | 10.9
34 | Cc1cc(NCc2ccc3c(c2)OCO3)n2nc(C)nc2n1 | -3.44
35 | COc1ccc(OCC(O)CNC(=O)c2ccc(Br)cc2)cc1 (stereo not shown) | -10.7
36 | O=C(c1ccccc1)c1ccc(Oc2ncccn2)cc1 | 18.4
37 | N#Cc1cc2cc3c(cc2nc1NCCNC(=S)NCCCN1CCOCC1)OCO3 | 14
38 | Cc1cc(Nc2ccccc2)n(-c2ccc(Br)cc2)n1 | 3.39
39 | O=c1cc(N2CCCCC2)c(-c2ccccc2)nn1Cc1ccccc1 | 0.332
40 | CCCCC1(Cc2ccc(OC)c([N+](=O)[O-])c2)C(=O)N(c2ccccc2)N(c2ccccc2)C1=O | 6.34
41 | C[C@H](NC(=O)c1ccco1)C(=O)N1CCCC1 | 12.5
42 | CCOc1ccc(C(=O)Nc2nnc(C3=COCCO3)o2)cc1 | 15
43 | CC(=O)N1CCN(c2ccccc2NC(=O)c2ccc(-c3cccc([N+](=O)[O-])c3)o2)CC1 | -81.6
44 | Cc1cccc(CCN2C(N(C)C)=NC[C@@H]2C)c1 | 7.09

Row | Compound | hERG current change (%, negative = inhibition) at 1uM [%]
45 | Cn1cc(C(=O)c2cccc(Cl)c2)cc1C#N | 10.3
46 | CCOc1cc(/C=N/NC(=O)CSc2nncn2C)ccc1OCc1cccc(C)c1 | -4.63
47 | CC(C)NC(=O)C1(c2ccccc2)CC1(Cl)Cl (stereo not shown) | 11.3
48 | Cc1nn(C)c(Cl)c1CN1CCCC(C(=O)Nc2cccc(-n3cccn3)c2)C1 (stereo not shown) | -3.6
49 | O=S(=O)(c1ccccc1)N1CC1c1ccccc1 (stereo not shown) | 5.09
50 | CC1=C(C(=O)OCC2CCCO2)C(c2coc3ccccc3c2=O)C2=C(CCCC2=O)N1 (stereo not shown) | 0.381
51 | Cc1ccc(C(=O)Oc2ccccc2N2CCOCC2)cc1 | 11.1
52 | COc1cc(/C=N/NC(=O)c2ccncc2)ccc1OCCN1CCCCC1 | 5.52
53 | COC(=O)c1ccccc1NC(=O)c1ccc(COc2ccccc2)o1 | 12.3
54 | CN(Cc1ccccc1)C(=O)c1ccc(NC(=O)C2=CSCCO2)cc1 | 10.7
55 | CCN(CC)c1ccc(S(=O)(=O)N2CCOCC2)cc1NC(=O)CN1CCN(Cc2ccccc2)CC1.Cl | -17.5
56 | O=C(N/C(=C/c1cccnc1)C(=O)N1CCOCC1)c1ccccc1Br | 15.7
57 | COc1ccc(OC)c2[nH]c(=O)c(CCNC(=O)C(C)C)cc12 | 15.7
58 | CCC(OC(=O)c1nsc(Cl)c1Cl)C(=O)NCc1cccs1 (stereo not shown) | -3.5
59 | Cl.Nc1nc(Nc2ccc(Cl)cc2)nc2ccccc12 | 6.98
60 | COc1ccc(C(=O)NCCCN(C)CCCNC(=O)c2ccc(OC)cc2)cc1 | 9.44
61 | CC(=O)Nc1ccc(NC(=O)C/C(C)=N/NC(=O)COc2cc(C)c(Br)cc2Br)cc1 | 6.02
62 | COCCNC(=S)N/N=C1\CC(C)CC(C)(C)C1 (stereo not shown) | 8.67
63 | CC1CCN(S(=O)(=O)c2cn(CC(=O)N3CCN(c4cccc(C(F)(F)F)c4)CC3)cn2)CC1 | 5.78
64 | O=C(NN=c1c(=O)c2ccccc2c1=O)c1ccccc1 | -3.26
65 | Cl.NC1=NC2(CCCCC2)N(c2cccc(Cl)c2)C(N)=N1 | 17.5
66 | Cl.O=C1C2C3C=CC(C4CC34)C2C(=O)N1CCCCN1CCN(c2ccc(F)cc2)CC1 (stereo not shown) | -69.2

Row | Compound | hERG current change (%, negative = inhibition) at 1uM [%]
67 | Cc1ccc(C(O)(C(=O)NNC(=O)CN2CCN(C)CC2)c2ccc(C)cc2)cc1 | 10.1
68 | O=C(NCCN1CCOCC1)N1CCOCC1 | 1.21
69 | COc1cc2nc(N3CCN(C(=O)c4ccco4)CC3)nc(N)c2cc1OC.Cl.O | 2.99
70 | CCc1nnc(NC(=O)C(C)C)s1 | 9.95
71 | CC(C)[C@H](NC(=O)[C@@H]1CSC2c3ccccc3C(=O)N21)C(=O)NC1CCCC1 (stereo partly shown) | 19.5
72 | CCc1ccc2c(c1)C(O)(CC(=O)c1cccs1)C(=O)N2 (stereo not shown) | 6.15
73 | C[N+]1(C)C2CCC1CC(OC(=O)c1ccco1)C2.[Br-] (stereo not shown) | 8.57
74 | COc1c(/C=N/Nc2ccc([N+](=O)[O-])cc2[N+](=O)[O-])c(C)nn1-c1ccccc1 | 8.7
75 | O=C(COC(=O)C1(c2ccc(Cl)cc2)CCCC1)NC1CCS(=O)(=O)C1 (stereo not shown) | -7.34
76 | Cc1ccc(NC(=O)CCNC(=O)c2ccccc2Cl)cc1S(=O)(=O)N1CCCCCC1 | 7.67
77 | COC(=O)c1cc(OC)c(OC)cc1NCC(=O)Nc1ccc(C)cc1 | 2.14
78 | O=C(Cn1cnc2ccccc2c1=O)NCCCN1CCCC1=O | 6
79 | CC1CN=C(NC(=O)c2cccc([N+](=O)[O-])c2)S1.Cl (stereo not shown) | 7.67
80 | Cc1ccc(C)c(NC(=O)C2CCN(S(=O)(=O)c3ccc4c(c3)NC(=O)CO4)CC2)c1 | 0.661
81 | Cc1ccc(CC(=O)N2CCN(c3ccccn3)CC2)cc1 | 6.18
82 | Cc1cccc(NC(=S)NNC(=O)CCn2cc(C)cn2)c1 | -1.72
83 | CC1CCCN(Cc2c(O)ccc3c(=O)c(-c4nc5ccccc5s4)c(N)oc23)C1 (stereo not shown) | 8.6
84 | CC(=O)Nc1ccc(S(=O)(=O)N2CCCC2C(=O)Nc2ccc(F)cc2)cc1 (stereo not shown) | 14.3
85 | COc1ccccc1OCc1nc2ccccc2n1C | 7.93
86 | CCCn1c(SCC(=O)Nc2ccc(OCC)cc2)nnc1C(C)C | 7.36
87 | COc1ccc2cc(C(C)=O)c(=O)oc2c1 | 0.412
88 | CCN1CCN(c2cc3nc(C)n(Cc4ccccc4)c(=O)c3cc2NC(=O)c2ccccc2F)CC1 | 14.2
